# For at least one compound, name, drawing or mass did not settle the structure.
# Test system: not listed separately
# Test: maze test, which tests anxiety
# Assay type: in vivo
# Details: at 20 mg/kg
# Description: The compounds of Example 1d (also found in Example 6d), Example 22d, and Example 35d, were also tested in vivo using the maze test, which tests anxiety [Montgomery, J. Comparative and Physiological Psychology 48, 254–60 (1955); Handley et al., Naunyn-Schmiedeberg's Archives of Pharmacology 327, 1–5 (1984); Lister, Psychopharm. 92, 180–85 (1987); Pellow et al., J. Neuroscience Methods 14, 149–67 (1985); Rodgers et al., Ethology and Psychopharmacology, S. J. Cooper and C. A. Hendrie (eds), John Wiley & Sons, Ltd., 9–43 (1994); and Trullas et al., Psychopharm. 111, 323–31 (1993)]. The results of the maze test for these compounds are found in FIGS. 1a, 1b, 2a, 2b, 3a, and 3b. FIGS. 1a, 2a, and 3a are graphs of the Number of Entries in Open Arms vs. mg/kg (dose of administered compound). FIGS. 1b, 2b, and 3b plot the Percent of Time Spent in Open Arms vs. mg/kg (dose of administered compound). […] The results of the maze test are accepted by persons of skill in the art as predictive of therapeutic utility.
row,Structure (SMILES),"maze test activity (Number of Entries in Open Arms, Percent of Time Spent in Open Arms)"
1,"Cc1ccc(-c2nc3ccc(C)cn3c2C2CCCN(C)C2=O)cc1 (racemic) [Example 35d, (+/−)-1-Methyl-3-(6-methyl-2-p-tolyl-imidazo[1,2-a]pyridin-3-yl)-piperidin-2-one]",statistically significant activity

# Biological target: central benzodiazepine receptors
# Test: binding to central benzodiazepine receptors, displacement of 3H-flunitrazepam (test of Speth et al.)
# Details: Table 1a
row,Structure (SMILES),IC50 [nM]
1,Cc1ccc(-c2nc3ccc(C)cn3c2CC(=O)c2cn(C)cn2)cc1,160
2,Cc1ccc(-c2nc3ccc(C)cn3c2CC(=O)C2COc3ccccc3O2)cc1 (stereo not drawn),2600
3,Cc1ccc(-c2nc3ccc(C)cn3c2CC(=O)c2cncn2C)cc1,40
4,Cc1ccc(-c2nc3ccc(C)cn3c2CC(=O)Cc2cccs2)cc1,1300
5,Cc1ccc(-c2nc3ccc(C)cn3c2CC(=O)c2cccs2)cc1 [drawing 97],38
6,Cc1ccc(-c2nc3ccc(C)cn3c2CC(=O)C2CC2)cc1,1900
7,Cc1ccc(-c2nc3ccc(C)cn3c2CC(=O)c2nnn(C)c2C)cc1,100
8,Cc1ccc(-c2nc3ccc(C)cn3c2CC(=O)C(C)C)cc1,> 10000
9,Cc1ccc(-c2nc3ccc(C)cn3c2CC(=O)c2cc3ccccc3s2)cc1,> 10000
10,COc1ccsc1C(=O)Cc1c(-c2ccc(C)cc2)nc2ccc(C)cn12 [drawing 131],36
11,Cc1ccc(-c2nc3ccc(C)cn3c2CC(=O)c2cc(C)nn2C)cc1,91
12,Cc1ccc(-c2nc3ccc(C)cn3c2CC(=O)c2ccoc2)cc1,590
13,Cc1ccc(-c2nc3ccc(C)cn3c2CC(=O)c2ccc(C)s2)cc1,750
14,Cc1ccc(-c2nc3ccc(C)cn3c2CC(=O)c2ccco2)cc1,1300
15,Cc1ccc(-c2nc3ccc(C)cn3c2CC(=O)C2CCCC2)cc1,> 10000
16,Cc1ccc(-c2nc3ccc(C)cn3c2CC(=O)CCc2ccccc2)cc1,650
17,Cc1ccc(-c2nc3ccc(C)cn3c2CC(=O)c2nccn2C)cc1,3500

# Same assay, conditions: Table 1b
row,Structure (SMILES),IC50 [nM]
1,Cc1cc(Cl)cn2c(CC(=O)c3cccs3)c(-c3ccc(Cl)cc3)nc12,> 10000
2,Cc1cc(Cl)cn2c(CC(=O)c3ccoc3)c(-c3ccc(Cl)cc3)nc12,> 10000
3,COc1ccc(-c2nc3ccc(C)cn3c2CC(=O)c2cc(C)nn2C)cc1,8200

# Same assay, conditions: Table 2
row,Structure (SMILES),IC50 [nM]
1,Cc1ccc(-c2nc3ccc(C)cn3c2C2CCCN(C)C2=O)cc1 (stereo not drawn) [drawing 156],160
2,Cc1ccc(-c2nc3ccc(C)cn3c2C2CCCN(C)C2=O)cc1 (stereo not drawn) [drawing 151],142
3,Cc1ccc(-c2nc3ccc(C)cn3c2C2CCCN(C)C2=O)cc1 (stereo not drawn) [drawing 155],> 10000

# Source: patent publication US7148353B2 (priority 2003, dated 2006)
